Hit rate of the full screen: of about 310,000 compounds, about 14,000 (4.5%) showed an effect of 50% or more. The effect is printed as a negative number. The list shows a part of the results.
Each compound was assayed against human ether-à-go-go-related gene (hERG) potassium channel (human, UniProt Q12809) (assay: primary screen, population patch clamp on CHO cells stably expressing hERG).
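Further: peak tail current of the secondary pulse compared with the same well before compound.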

Chain of human ether-à-go-go-related gene (hERG) potassium channel (Q12809 whole entry, looked up): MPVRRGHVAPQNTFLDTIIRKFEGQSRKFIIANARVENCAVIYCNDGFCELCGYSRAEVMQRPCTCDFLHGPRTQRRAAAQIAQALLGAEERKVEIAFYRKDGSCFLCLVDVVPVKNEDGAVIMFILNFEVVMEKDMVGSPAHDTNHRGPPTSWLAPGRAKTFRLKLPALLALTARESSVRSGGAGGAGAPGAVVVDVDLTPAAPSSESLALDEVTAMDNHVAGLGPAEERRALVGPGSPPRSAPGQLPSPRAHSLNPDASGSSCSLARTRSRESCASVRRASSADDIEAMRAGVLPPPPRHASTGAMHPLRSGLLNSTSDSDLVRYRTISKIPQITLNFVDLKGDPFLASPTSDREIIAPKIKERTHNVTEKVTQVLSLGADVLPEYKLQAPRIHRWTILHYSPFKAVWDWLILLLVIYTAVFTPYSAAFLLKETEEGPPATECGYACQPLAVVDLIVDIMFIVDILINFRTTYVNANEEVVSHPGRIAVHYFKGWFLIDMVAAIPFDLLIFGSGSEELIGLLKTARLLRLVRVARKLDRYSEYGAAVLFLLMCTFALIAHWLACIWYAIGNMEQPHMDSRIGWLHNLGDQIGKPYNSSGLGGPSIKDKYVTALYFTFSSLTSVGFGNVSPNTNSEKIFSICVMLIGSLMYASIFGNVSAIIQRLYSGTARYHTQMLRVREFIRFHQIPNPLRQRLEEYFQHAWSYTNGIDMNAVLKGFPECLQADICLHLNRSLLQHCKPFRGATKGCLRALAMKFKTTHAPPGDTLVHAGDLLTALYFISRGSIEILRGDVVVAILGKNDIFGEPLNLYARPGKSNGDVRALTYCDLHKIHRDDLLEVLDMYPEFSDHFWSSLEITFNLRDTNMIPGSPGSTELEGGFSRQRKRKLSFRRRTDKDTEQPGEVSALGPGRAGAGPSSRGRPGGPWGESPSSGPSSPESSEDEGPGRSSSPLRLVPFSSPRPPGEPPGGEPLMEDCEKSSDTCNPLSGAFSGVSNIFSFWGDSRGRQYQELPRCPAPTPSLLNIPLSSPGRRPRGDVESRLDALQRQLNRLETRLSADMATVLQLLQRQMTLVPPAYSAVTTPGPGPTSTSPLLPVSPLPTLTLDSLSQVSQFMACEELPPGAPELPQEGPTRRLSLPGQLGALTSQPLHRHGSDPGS

| Structure (SMILES) | hERG current change (%, negative = inhibition) at 10uM [%] |
| --- | --- |
| CCOC(=O)N1CCN(Cc2ccc3ccccc3c2)CC1 | 10.3 |
| Cc1ccc(S(=O)(=O)N2CCN(C(=O)COC(=O)C3(C)CC3(Cl)Cl)CC2)c(C)c1 (stereo not drawn) | -0.582 |
| CC(C)(C)NC(=O)NC(=O)COC(=O)c1ccc(OC(F)(F)F)cc1 | 10.7 |
| CCc1ccc(C(O)(CC)C(CN2CCOCC2)c2ccccc2)cc1.Cl (stereo not drawn) | -17 |
| COc1ccccc1OCc1ccc(C(=O)N2N=C(C(F)F)CC2(O)C(F)F)o1 (stereo not drawn) | -11.5 |
| Cc1nc(NCC2CCCO2)c2nnn(Cc3ccccc3Cl)c2n1 (stereo not drawn) | -17.7 |
| Nc1ccc2nn(-c3cc([N+](=O)[O-])ccc3O)nc2c1 | 12.3 |
| COc1ccc(-c2nnc(SCC(=O)Nc3cc(C)on3)o2)cc1 | 14.4 |
| O=C(CSc1ncnc2c1cnn2-c1cccc(Cl)c1)NCC1CCCO1 (stereo not drawn) | 7.88 |
| COc1ccc(C(=O)Cc2cc(OC)c(OC)cc2C(=O)c2ccccc2F)cc1OC | -14.7 |
| O=C(CCc1ccccc1)OCC(=O)c1ccc(Br)cc1 | 20.6 |
| O=C(Nc1ccccn1)C(F)(F)C(F)(F)C(F)(F)C(F)(F)C(=O)Nc1ccccn1 | -18 |
| Cl.O=[N+]([O-])c1ccc(N2CCCNCC2)c2ncccc12 | -64.8 |
| CCOc1ccc(NC(=O)C(c2ccccn2)N(C(=O)CCl)c2ccc(OC)cc2)cc1 (stereo not drawn) | -1.51 |
| CCOc1cc(NC(=O)c2ccccn2)c(OCC)cc1NC(=O)c1cccc(C)c1 | 8.7 |
| CSC(=S)N/N=C/c1ccccc1 | 29.6 |
| S=C(Nc1ccccc1)Nc1cccc(Br)c1 | 3.13 |
| CN(C(=O)CSc1nc2[nH]ncc2c(=O)[nH]1)c1ccccc1 | 13.6 |
| COCCN(C(=O)COc1ccccc1C#N)c1c(N)n(Cc2ccccc2)c(=O)[nH]c1=O | 11.6 |
| CCOCCCNC(=O)C(NC(=O)c1ccc(NC(C)=O)cc1)c1ccc(C)cc1 (stereo not drawn) | -20.5 |
| COc1cc(OC)c(OC)cc1CN1CCCC(C(=O)c2ccccc2SC)C1 (stereo not drawn) | -58.5 |
| CCOC(=O)C1(C)C=C(Nc2cccc(OC)c2)C(=O)N1c1ccccc1 (stereo not drawn) | 6.72 |
| O=C(O)c1ccc(COc2ccc(/C=N/NC(=O)c3cccs3)cc2)cc1 | 9.44 |
| O=C(O)CCCc1ccc2ccc3cccc4ccc1c2c34 | 9.08 |
